Assay results published in PubChem BioAssay (NCATS).
This is one part of the list. Shown are side measurements of this screen, not its main read-out; they come without a call. Compounds called inactive in the main read-out are mostly missing here. Words in brackets tell the shape of the fitted curve; partial curves, single points and poor fits give uncertain potencies.

Experiment: qHTS Assay for Lipid Storage Modulators (AID 1519)
Conditions: Drosophila S3 cells, BODIPY lipid droplet/cell ratio, laser cytometry, cells loaded with oleic acid; for AC50: measured here: lipid (BODIPY) channel AC50
Procedure, shortened: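 Cells seeded at 5,000 per well were treated with compounds over a concentration series and loaded with oleic acid (400 uM, as added). Lipid droplet fluorescence (488 nm excitation, 500-530 nm channel) was read by laser-scanning cytometry and normalized to 20 uM Triacsin C.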

[1] = measured here: cell count channel max response
[2] = measured here: lipid channel max response
Tags tell the direction and shape of the fitted curve.

Row | Compound | max response [1] [%] | AC50 | max response [2] [%]
1 | N[C@H](Cc1ccc(Cl)cc1)C(=O)O | 26.4 | 39800 nM [rising, single point] | 31.1
2 | O=C(c1cnccn1)N1CCC[C@@]2(CCN(c3cccc(-c4ccccc4)c3)C2)C1 | 12 | 28.2 nM [rising, partial curve, poor fit] | 7.93
3 | COc1cccc(Cn2c(=O)cnc3cnc(N4CCOCC4)nc32)c1 | 9.11 | 158 nM [rising, full curve] | 17.2
4 | CN1CCN(c2ncc3nc(-c4cccs4)c(=O)n(C[C@H]4CCCO4)c3n2)CC1 | 18.2 | 44.7 nM [rising, full curve, poor fit] | 23.8
5 | O=C(Nc1cccc(F)c1)N1CCC2(CC1)CCN(C(=O)c1ccncc1)CC2 | 18.3 | 5.62 nM [rising, full curve, poor fit] | 23.6
6 | Cn1c(=O)c(-c2cc(F)cc(F)c2)nc2cnc(Oc3cccc(Cl)c3)nc21 | 25.7 | 17.8 nM [rising, full curve, poor fit] | 12.9
7 | Cn1cccc1C(=O)N1CCC2(CC1)CCN(c1ncccn1)CC2 | 14.5 | 4470 nM [rising, full curve, poor fit] | 28.6
8 | N#CCCn1c(=O)c(-c2cccs2)nc2cnc(N3CCOCC3)nc21 | 5.12 | 1580 nM [rising, partial curve] | -5.89
9 | CC(=O)c1c(O)cc(O)cc1O | 18.4 | 22400 nM [rising, partial curve, poor fit] | 31.1
